Experimental data published in the supplement of paper PMC8728848.
The other results are listed elsewhere or left out.

What was measured:
Experiment in all cases: glycan array binding signal (z-score within array); higher = stronger binding
Details in all cases: glycan notation: IUPAC condensed, linker removed
[1] = target: GlcNAc(b1-3)Gal(b1-4)GlcNAc(b1-3)Gal(b1-4)GlcNAc(b1-3)Gal(b1-4)GlcNAc(b1-3)Gal(b1-4)GlcNAc(b1-2)Man(a1-3)[GlcNAc(b1-3)Gal(b1-4)GlcNAc(b1-3)Gal(b1-4)GlcNAc(b1-3)Gal(b1-4)GlcNAc(b1-3)Gal(b1-4)GlcNAc(b1-2)Man(a1-6)]Man(b1-4)GlcNAc(b1-4)[Fuc(a1-6)]GlcNAc
In short: (§1)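 Glycan array binding is given as a within-array Z-score, which can be read as non-binding when negative. The arrays, 3228 of them, came from the Consortium for Functional Glycomics database and were retained only where the protein sequence was available. Z-scores were averaged across arrays of the same protein sequence at different concentrations or buffers and across linkers.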

[2] = target: GlcNAc(b1-3)Gal(b1-4)GlcNAc(b1-3)Gal(b1-4)GlcNAc(b1-3)Gal(b1-4)GlcNAc(b1-3)Gal(b1-4)GlcNAc(b1-2)[GlcNAc(b1-3)Gal(b1-4)GlcNAc(b1-3)Gal(b1-4)GlcNAc(b1-3)Gal(b1-4)GlcNAc(b1-3)Gal(b1-4)GlcNAc(b1-6)]Man(a1-6)[GlcNAc(b1-3)Gal(b1-4)GlcNAc(b1-3)Gal(b1-4)GlcNAc(b1-3)Gal(b1-4)GlcNAc(b1-3)Gal(b1-4)GlcNAc(b1-2)Man(a1-3)]Man(b1-4)GlcNAc(b1-4)[Fuc(a1-6)]GlcNAc
In short: as §1

[3] = target: GlcNAc(b1-3)Gal(b1-4)GlcNAc(b1-3)Gal(b1-4)GlcNAc(b1-3)GalNAc
In short: as §1

[4] = target: GlcNAc(b1-3)Gal(b1-4)GlcNAc(b1-3)GalNAc
In short: as §1

[5] = target: GlcNAc(b1-3)Gal(b1-4)GlcNAc(b1-3)[GlcNAc(b1-3)Gal(b1-4)GlcNAc(b1-3)]GalNAc
In short: as §1

[6] = target: GlcNAc(b1-3)Gal(b1-4)GlcNAc(b1-6)[Gal(b1-3)]GalNAc
In short: as §1

[7] = target: GlcNAc(b1-3)Gal(b1-4)GlcNAc(b1-6)[GlcNAc(b1-3)Gal(b1-3)]GalNAc
In short: as §1

[8] = target: GlcNAc(b1-3)Gal(b1-4)GlcNAc(b1-6)[GlcNAc(b1-3)]Gal(b1-4)GlcNAc
In short: as §1

[9] = target: GlcNAc(b1-3)GalNAc
In short: as §1

[10] = target: GlcNAc(b1-3)Man
In short: as §1

[11] = target: GlcNAc(b1-3)[GlcNAc(b1-4)][GlcNAc(b1-6)]GlcNAc
In short: as §1

[12] = target: GlcNAc(b1-3)[GlcNAc(b1-6)]Gal(b1-4)GlcNAc
In short: as §1

[13] = target: GlcNAc(b1-3)[GlcNAc(b1-6)]GalNAc
In short: as §1

[14] = target: GlcNAc(b1-4)Gal(b1-4)GlcNAc
In short: as §1

[15] = target: GlcNAc(b1-4)GlcNAc
In short: as §1

[16] = target: GlcNAc(b1-4)GlcNAc(b1-4)GlcNAc
In short: as §1

[17] = target: GlcNAc(b1-4)GlcNAc(b1-4)GlcNAc(b1-4)GlcNAc(b1-4)GlcNAc
In short: as §1

[18] = target: GlcNAc(b1-4)GlcNAc(b1-4)GlcNAc(b1-4)GlcNAc(b1-4)GlcNAc(b1-4)GlcNAc
In short: as §1

[19] = target: GlcNAc(b1-4)[GlcNAc(b1-6)]GalNAc
In short: as §1

B1: Gal 9 (Homo sapiens), O00182 (protein)
chain: MAFSGSQAPYLSPAVPFSGTIQGGLQDGLQITVNGTVLSSSGTRFAVNFQTGFSGNDIAFHFNPRFEDGGYVVCNTRQNGSWGPEERKTHMPFQKGMPFDLCFLVQSSDFKVMVNGILFVQYFHRVPFHRVDTISVNGSVQLSYISFQNPRTVPVQPAFSTVPFSQPVCFPPRPRGRRQKPPGVWPANPAPITQTVIHTVQSAPGQMFSTPAIPPMMYPHPAYPMPFITTILGGLYPSKSILLSGTVLPSAQRFHINLCSGNHIAFHLNPRFDENAVVRNTQIDNSWGSEERSLPRKMPFVRGQSFSVWILCEAHCLKVAVDGQHLFEYYHRLRNLPTINRLEVGGDIQLTHVQT
glycan array binding signal (z-score) [1]: 1.89 | glycan array binding signal (z-score) [2]: 2.32 | glycan array binding signal (z-score) [3]: -0.205 | glycan array binding signal (z-score) [4]: -0.286 | glycan array binding signal (z-score) [5]: -0.273 | glycan array binding signal (z-score) [6]: -0.248 | glycan array binding signal (z-score) [7]: -0.283 | glycan array binding signal (z-score) [8]: -0.118 | glycan array binding signal (z-score) [9]: -0.316 | glycan array binding signal (z-score) [10]: -0.329 | glycan array binding signal (z-score) [11]: -0.318 | glycan array binding signal (z-score) [12]: -0.311 | glycan array binding signal (z-score) [13]: -0.318 | glycan array binding signal (z-score) [14]: -0.322 | glycan array binding signal (z-score) [15]: -0.324 | glycan array binding signal (z-score) [16]: -0.33 | glycan array binding signal (z-score) [17]: -0.325 | glycan array binding signal (z-score) [18]: -0.316 | glycan array binding signal (z-score) [19]: -0.335
